Hit rate of the full screen: of about 48,000 compounds, about 550 (1.1%) were called active. Another 4% or so got no clear call; they are omitted. Rule as the data show it: active = potency below about 15 µM; inconclusive = mostly about 16 µM to 33 µM; inactive = weaker than that. Some of the results follow.
target: Lysosomal acid glucosylceramidase (Homo sapiens) (UniProt P04062); experiment: Glucocerebrosidase; conditions: purified enzyme, resorufin glucoside fluorescence (screen aimed at inhibitors), 20 min;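 also: the screen sought inhibitors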
Outline: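 Wild-type enzyme at 0.2 nM final in 50mM citric acid/KH2PO4, 10mM sodium taurocholate, 0.01% tween-20, pH 5.9, with resorufin beta-D-glucopyranoside at 30 uM final. Compounds titrated, 20 min at RT, red fluorescence read; AC50 from titration.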
Potency is read from the fitted curve at half-maximal effect.

Chain of UniProt P04062 (P04062 whole entry, looked up): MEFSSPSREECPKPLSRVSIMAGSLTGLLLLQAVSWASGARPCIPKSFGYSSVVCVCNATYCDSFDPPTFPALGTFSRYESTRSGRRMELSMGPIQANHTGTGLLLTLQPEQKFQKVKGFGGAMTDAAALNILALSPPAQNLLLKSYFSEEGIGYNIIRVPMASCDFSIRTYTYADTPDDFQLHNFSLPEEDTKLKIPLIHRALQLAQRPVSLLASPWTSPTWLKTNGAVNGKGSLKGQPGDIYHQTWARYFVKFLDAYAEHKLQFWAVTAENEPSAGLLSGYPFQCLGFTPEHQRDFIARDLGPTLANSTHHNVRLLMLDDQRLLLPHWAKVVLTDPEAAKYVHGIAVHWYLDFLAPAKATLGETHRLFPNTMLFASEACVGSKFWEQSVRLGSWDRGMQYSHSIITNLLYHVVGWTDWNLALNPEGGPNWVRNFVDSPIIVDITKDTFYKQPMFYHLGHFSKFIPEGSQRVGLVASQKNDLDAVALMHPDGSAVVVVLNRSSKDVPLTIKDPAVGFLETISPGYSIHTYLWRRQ

Potency, inactive:
CC(=O)/C(C(=N)N1CCN(c2cccc(Cl)c2)CC1)=C(\C)O > 76.9 µM
CC(=O)Oc1ccc(Oc2ccc(-c3noc(C)n3)cc2)cc1 > 76.9 µM
Cc1cc(C)nc(SCCn2c(N3CCC(C)CC3)nc3c2c(=O)n(C)c(=O)n3C)n1 > 76.9 µM
OC12CCCCC1C(c1ccc3c(c1)OCO3)N(Cc1ccccc1F)CC2 (stereo not given) > 76.9 µM
O=C(CN1CCCCCC1)Nc1cccc2c1OCO2 > 76.9 µM
Cc1cc(NC(=O)C2CCN(S(=O)(=O)Cc3ccccc3)CC2)ccc1-n1cnnn1
COCCCNC(=O)c1ccccc1NS(C)(=O)=O > 76.9 µM
Cc1ccc(C(=O)N2CCN(C(=O)CN3CCCC3)C2)cc1 > 76.9 µM
O=C(CN1CCN(CC(=O)Nc2ccccc2Cl)CC1)Nc1ccc2c(c1)OCCO2 > 76.9 µM
O=C(COC(=O)CCC(=O)Nc1nccs1)NCc1ccco1 > 76.9 µM
COc1ccc2cc3cc(C(=O)NCc4ccc5c(c4)OCO5)oc3nc2c1 > 76.9 µM
O=C(NCc1cccs1)c1nc2c(nnn2Cc2ccccc2Cl)c(=O)[nH]1 > 76.9 µM
COc1ccc(C(=O)Oc2cccnc2)cc1OC > 76.9 µM
Cn1c(N2CCCC2)nc2c1c(=O)n(Cc1ccc(Cl)cc1)c(=O)n2C > 76.9 µM
COc1ccc2c(c1OC)C(=O)N(c1ncn[nH]1)C2 > 76.9 µM
O=C1CC(CCC(=O)NC2CC2)c2ccccc2N1 (stereo not given) > 76.9 µM
CCOc1ccccc1-n1c(SCC(=O)N(CC)CC)nnc1-c1ccccn1 > 76.9 µM
CCOC(=O)N1CCN(C(=O)c2ccccc2N(C)S(C)(=O)=O)CC1 > 76.9 µM
CCN(CC)S(=O)(=O)c1ccc(OC(C)C)nc1 > 76.9 µM
O=C(Cc1ccccc1)Nc1ccccc1N1CCN(c2ccccc2)CC1 > 76.9 µM
CC(=O)N(Cc1cc2ccc(C)c(C)c2n2nnnc12)C1CCCC1 > 76.9 µM
COc1ccccc1NC(=O)COC(=O)CNC(=O)c1ccc(OC)c(OC)c1 > 76.9 µM
CCCc1nc(SCC(=O)Nc2cc(C)on2)c2ccccc2n1 > 76.9 µM
CCCn1nnc(NC(=O)c2cc3ccccc3o2)n1 > 76.9 µM
Cc1ccc(C(=O)Nc2ccc(O)c(C(=O)O)c2)o1 > 76.9 µM
CCOC(=O)CSc1nnc2n1C(C)(C)Cc1ccccc1-2 > 76.9 µM
Cn1c(=O)c2c(ncn2CC(O)CNc2ccc(Cl)cc2)n(C)c1=O (stereo not given) > 76.9 µM
O=C(CCCn1c(=O)oc2ccccc21)Nc1cccnc1 > 76.9 µM
COc1cccc(-n2c(SCC(=O)O)nnc2-c2cccnc2)c1 > 76.9 µM
Cc1csc(NC(=O)CSc2nnc(-c3ccco3)n2C)n1 > 76.9 µM
COc1cccc(C(=O)N(Cc2cc3cc(C)ccc3[nH]c2=O)CC2CCCO2)c1 (stereo not given) > 76.9 µM
O=C(COC(=O)c1ccccc1F)c1ccc(-n2nncc2-c2ccco2)cc1 > 76.9 µM
O=C(Nc1ccccn1)c1cc(-n2cnnc2)ccc1Cl > 76.9 µM
O=C(c1ccc2c(c1)OCCO2)C1CCN(S(=O)(=O)c2ccccc2F)CC1 > 76.9 µM
CC1CCCN(c2nc3ccccc3nc2C(C#N)C(=O)OC2CCCCC2)C1 (stereo not given) > 76.9 µM
Cc1nc(C)c(C(=O)C2=C(O)C(=O)N(CCN3CCOCC3)C2c2cccnc2)s1 (stereo not given) > 76.9 µM
CCOc1cc(N2CCOCC2)c(OCC)cc1NC(=O)c1ccc(=O)n(Cc2ccccc2)n1 > 76.9 µM
CC(=O)Nc1cccc(-c2nnc3n2CC(C)S3)c1 (stereo not given) > 76.9 µM
COc1cc(NS(=O)(=O)c2ccc(OC)c(OC)c2)cc(OC)c1 > 76.9 µM
Cc1c(NC(=O)CSc2ccccn2)c(=O)n(-c2ccccc2)n1C > 76.9 µM
CCC(=O)Nc1cccc(NC(=O)CSc2nnnn2C2CCCC2)c1 > 76.9 µM
Cc1cc(=O)oc2cc(OCC3CC(c4ccc(N(C)C)cc4)=NO3)ccc12 (stereo not given) > 76.9 µM
O=C(Nc1ccc(F)cc1F)c1cc2n(n1)C(C(F)(F)F)C1CCCCC1N2 (stereo not given) > 76.9 µM
COc1cc2cc(CN(Cc3nnnn3Cc3ccccc3)CC3CCCO3)c(=O)[nH]c2cc1OC (stereo not given) > 76.9 µM
COC(=O)Nc1sc2c(c1C(N)=O)CCCCCC2 > 76.9 µM
O=C1CC(c2ccc(S(=O)(=O)NCCOc3ccccc3)cc2)CN1 (stereo not given) > 76.9 µM
CNC(=O)N(O)C1N(C)C(=O)N(Cc2ccccc2)C1(C)C (stereo not given) > 76.9 µM
c1ccc(-n2ncc3c(N4CCN(c5ccccn5)CC4)nc(N4CCOCC4)nc32)cc1 > 76.9 µM
COc1ccc2oc(C)c(NC(C)=O)c2c1 > 76.9 µM
CSc1nnc(-c2ccccc2)n1C > 76.9 µM
COc1ccccc1C(=O)Nc1ccccc1N1CCN(S(C)(=O)=O)CC1 > 76.9 µM
COC(=O)Cn1cc(C(=O)OC)c2ccccc21 > 76.9 µM
Cn1ccnc1SCc1cc(=O)[nH]c2ccccc12 > 76.9 µM
COc1ccc(S(=O)(=O)N2CCCN(CC(=O)Nc3ccc4c(c3)OCO4)CC2)cc1 > 76.9 µM
O=C(NC1CCCCCC1)C1CC(=O)N(Cc2ccccc2)C1 (stereo not given) > 76.9 µM
CCn1c(SCC(=O)NCc2cccs2)nnc1-c1ccco1 > 76.9 µM
O=C(CN1C(=O)NC(Cc2ccccc2)C1=O)Nc1ccccc1 (stereo not given) > 76.9 µM
COc1cccc(C(=O)Nc2ccccc2N2CCOCC2)c1 > 76.9 µM
CSc1ccccc1NC(=O)c1cccs1 > 76.9 µM
C=CCn1c(SCC(=O)Nc2ccc3c(c2)OCCO3)nnc1-c1ccco1 > 76.9 µM
CCOC(=O)c1[nH]nc(-c2c(O)cc(C)cc2O)c1-c1csc(C)n1 > 76.9 µM
COc1ccccc1OCCC(=O)OCC(=O)NC(=O)NC(C)(C)C > 76.9 µM
COc1ccc(CN2C(=O)CN=C2Nc2cccc(C)c2C)cc1 > 76.9 µM
Cc1cc(NC(=O)C2CCCCC2)nc2c1c(=O)oc1ccccc12 > 76.9 µM
O=C(OCC(CO)OC(CO)n1ccc(=O)[nH]c1=O)c1ccccc1 (stereo not given) > 76.9 µM
Cc1ccccc1CNS(=O)(=O)c1ccc2c(c1)OCCO2 > 76.9 µM
CC(=O)NC(CCS(C)(=O)=O)C(=O)Nc1nc(C)cs1 (stereo not given) > 76.9 µM
O=c1[nH]c2ccc(S(=O)(=O)N3CCN(C4CCCCC4)CC3)cc2[nH]c1=O > 76.9 µM
CCOC(=O)NC(=O)CSc1nc(C)cc(C)c1C#N > 76.9 µM
COc1ccccc1C(=O)NCCc1nc2ccccc2n1C > 76.9 µM
COc1ccc(C)cc1-n1nnnc1SCn1nnc2ccccc2c1=O > 76.9 µM
O=C(O)c1ccc(NC(=O)C2(c3ccccc3)CCOCC2)cc1 > 76.9 µM
CC(C)c1nc2oc3c(NCc4ccccn4)ncnc3c2c2c1COC(C)(C)C2 > 76.9 µM
Cc1cc(C)nc(NC2=NCCN2C(=O)Nc2ccc(Cl)c(Cl)c2)n1 > 76.9 µM
CCn1c(=O)c2c(nc(SCc3ccccn3)n2C)n(C)c1=O > 76.9 µM
COc1cc2c(C(=O)NCCCOC(C)C)cn(CC(C)C)c(=O)c2cc1OC > 76.9 µM
CNc1oc(C)nc1S(=O)(=O)c1ccc(C)cc1 > 76.9 µM
COc1ccc(CCNC(=O)CSc2nc(-c3ccco3)cc(C(F)(F)F)n2)cc1OC > 76.9 µM
CN(C)CCCNCCCNC(=O)c1ccccn1 > 76.9 µM
COc1ccc(OC)c(CN2CCCC(C(=O)N3CCCCC3)C2)c1 (stereo not given) > 76.9 µM
COc1ccccc1N1CCN(C(=O)C2C3C=CC4(CN(Cc5ccccc5Cl)C(=O)C24)O3)CC1 (stereo not given) > 76.9 µM
CC(C)(C)c1[nH]nc2c1C(c1ccc(OC(=O)c3ccco3)cc1)C(C#N)=C(N)O2 (stereo not given)
CCCOP(=O)(c1ccc(N(C)C)cc1)C(O)c1cc(OC)c(OC)c(OC)c1 (stereo not given) > 76.9 µM
CCCCNC(=O)C1CCCN(S(=O)(=O)c2ccc(-n3cnnn3)cc2)C1 (stereo not given) > 76.9 µM
COc1nc(-c2ccccc2)ccc1-c1noc(C)n1 > 76.9 µM
COc1ccc(Cn2nnnc2CN(Cc2cc3cccc(C)c3[nH]c2=O)C2CCCC2)cc1 > 76.9 µM
O=C(NC(Cc1ccccc1)c1nc2ccccc2[nH]1)C1CC(=O)N(c2ccc3c(c2)OCCO3)C1 (stereo not given) > 76.9 µM
CC12CCC(C(=O)NCC3CCCO3)(OC1=O)C2(C)C (stereo not given) > 76.9 µM
Cn1c(=O)[nH]c(=O)c2c1nc(N1CCOCC1)n2CCN1CCOCC1 > 76.9 µM
CCOC(=O)Nc1ccc2c(c1)N(C(=O)CN(CC)CC)c1ccccc1C=C2 > 76.9 µM

— PubChem BioAssay AID360 (National Center for Advancing Translational Sciences (NCATS), 2006)
